# Data reported in the supplement of paper PMC3334620.
# Over roughly 33,000 sequences, “E-score (-0.5 to 0.5)” has its median near -0.043; the highest 2% begin near 0.37. The list shows a part of the results.
# Biological target: T1, Upc2 (UniProt Q12151)
# T1 sequence: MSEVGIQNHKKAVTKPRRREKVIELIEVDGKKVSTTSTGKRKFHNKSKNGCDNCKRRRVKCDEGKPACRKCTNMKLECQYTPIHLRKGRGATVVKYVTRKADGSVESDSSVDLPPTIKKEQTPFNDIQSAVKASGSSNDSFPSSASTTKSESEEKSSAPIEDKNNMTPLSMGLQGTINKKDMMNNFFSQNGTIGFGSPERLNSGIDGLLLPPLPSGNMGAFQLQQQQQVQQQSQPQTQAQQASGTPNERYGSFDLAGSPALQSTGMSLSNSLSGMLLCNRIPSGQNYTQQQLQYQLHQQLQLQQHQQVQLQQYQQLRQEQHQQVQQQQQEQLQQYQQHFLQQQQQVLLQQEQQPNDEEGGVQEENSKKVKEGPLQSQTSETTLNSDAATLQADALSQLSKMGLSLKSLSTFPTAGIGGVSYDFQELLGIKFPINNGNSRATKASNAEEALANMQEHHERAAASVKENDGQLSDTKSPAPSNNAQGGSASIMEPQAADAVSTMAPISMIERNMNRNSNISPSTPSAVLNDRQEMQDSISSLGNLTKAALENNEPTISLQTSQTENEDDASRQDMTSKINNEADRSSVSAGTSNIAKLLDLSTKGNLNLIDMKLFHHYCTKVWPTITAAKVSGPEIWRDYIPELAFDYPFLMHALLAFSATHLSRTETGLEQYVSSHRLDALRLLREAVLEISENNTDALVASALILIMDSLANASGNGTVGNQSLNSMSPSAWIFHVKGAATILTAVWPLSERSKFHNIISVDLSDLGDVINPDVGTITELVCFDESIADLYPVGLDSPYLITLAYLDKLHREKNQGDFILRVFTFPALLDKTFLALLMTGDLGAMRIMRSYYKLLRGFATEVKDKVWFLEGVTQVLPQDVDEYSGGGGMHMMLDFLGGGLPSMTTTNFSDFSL
# Assay: PBM E-score (8-mer binding enrichment) (E-score (-0.5 to 0.5)); higher = stronger / more preferred TF binding; most listed sequences are background and not binding sites
# Conditions: protein concentration: 200 nM; construct: GST-full length
# Experimental: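 Universal 'all 10-mer' protein binding microarrays (Agilent AMADID 015681) probed with GST-tagged S. cerevisiae TFs (full-length or DBD) made by in vitro transcription/translation (PURExpress), about 100-200 nM. Bound TF was detected with fluorescent anti-GST. Each ungapped 8-mer (which stands for itself and its reverse complement) is scored by the PBM enrichment score (E-score), a modified Wilcoxon-Mann-Whitney statistic from -0.5 to +0.5, computed with the Universal PBM Analysis Suite. Scale: above 0.35 generally sequence-specific binding.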
row,Sequence,PBM E-score
1,CGCAGTAG,-0.0605
2,AGCCTTCA,-0.211
3,CTAGTGAC,-0.191
4,TGCAGCCA,-0.109
5,CTCGCCCA,-0.102
6,TAAAGCAA,0.0119
7,CATTGCAA,-0.101
8,AATGCCGT,0.143
9,AGGACGAA,-0.156
10,CCTGTTCC,-0.177
11,CGTCGCAC,0.131
12,ACGGGATG,0.15
13,CGGTACGC,0.324
14,GGGCAGTA,0.0248
15,GGGTCACA,-0.201
16,GGAGCGAA,0.152
17,ATGGCATC,-0.118
18,AGATTTCA,0.0224
19,TATTAAGA,0.164
20,GTATTTGA,0.119
21,ATCTATTC,0.0736
22,ACCCAGAT,-0.233
23,ATAAGTCC,-0.0003
24,GACGTGAC,-0.00555
25,CGGACGTC,0.131

row,Sequence,PBM E-score
1,CGCCATAA,-0.168
2,GAGAACAC,-0.225
3,GAACCACA,-0.0218
4,TCGAAGCA,-0.0264
5,TACACGCA,-0.00816
6,TAAGCCAA,-0.00755
7,ACACAATA,0.0571
8,GACAGTGA,-0.0168
9,TACGGACA,0.3
10,AGAATGTC,-0.0606
11,ATCTTGTA,0.0573
12,AGCCTCTG,-0.0978
13,GATCTAGA,-0.139
14,ACATCCAT,-0.102
15,AACTAAGA,0.0375
16,CCCAAAGA,-0.274
17,CAGGTGTC,-0.185
18,GAAAGCGA,0.119
19,AACTGCTA,-0.0821
20,GCAAATGA,0.0817
21,AATTTGCT,-0.0154
22,CAAATGCA,0.0199
23,TAGTATGA,-0.0515
24,CGAAAGAG,0.0497
25,AGACAATA,0.148

row,Sequence,PBM E-score
1,ACCGCTAA,0.128
2,CATTATCA,-0.176
3,AGCGAAAG,0.133
4,AATTTAAT,0.0226
5,GCGAGAGC,0.23
6,GATTACGC,0.0207
7,ACCCGGGG,-0.0738
8,TAGTGGGA,-0.312
9,CCGAGCCA,-0.0165
10,TCAGGAAA,-0.0998
11,ATATTGGA,-0.149
12,AAGTGATC,0.00472
13,CTCGGTCA,0.195
14,ATCACGCC,-0.0941
15,CCTACGCC,-0.257
16,AGAGCGAG,0.127
17,ACACACCA,0.073
18,GTAGACGA,0.218
19,TCATAGAA,-0.0214
20,GACGATAC,0.124
21,GAAAGTAC,0.0246
22,AGAGCCCC,-0.0215
23,CCACATAC,0.232
24,ACACTTGA,-0.0493
25,GACCAACA,0.00527

row,Sequence,PBM E-score
1,ATAGAAGA,-0.158
2,ACATAGGT,0.0287
3,GCATCATA,0.00045
4,CACCCGCC,0.0703
5,CGGGAAGC,-0.14
6,GGAACTAC,-0.137
7,GAAAAACA,-0.0431
8,CCCTGGCA,-0.223
9,TAGGAGGA,-0.211
10,ACCTCAAA,0.0106
11,ACTTACGA,0.382
12,AGGGTGGA,-0.183
13,ATAGTATG,0.0124
14,ATAACCTC,-0.0875
15,CAGTGTAG,-0.0938
16,CCAAGTAA,0.16
17,GTGCCCAC,-0.104
18,CTTTTAGA,0.114
19,GACGAGTA,0.104
20,AGAGTTAT,-0.0578
21,GACACAGC,-0.146
22,CCCCCGCC,-0.299
23,CTTACGGC,0.185
24,AAACCGGA,-0.113
25,CCGTCCTC,-0.0575

row,Sequence,PBM E-score
1,AACCTTTA,-0.0707
2,GCTTTGCA,-0.159
3,CTGGCGCA,-0.234
4,AACACCCC,-0.187
5,CGATGTCA,0.0214
6,AACGCTAG,-0.089
7,CCATCATC,-0.00835
8,ACGTCTCT,0.073
9,AGAACGAG,0.42
10,TCCAGGCA,0.0278
11,AAGACACA,-0.109
12,GTCCCGAA,-0.116
13,AAATATCT,-0.0249
14,CAGCATGA,-0.387
15,ACCGGGTA,0.181
16,ATATATAT,-0.158
17,GCTCACAA,-0.0537
18,ATATCAAC,-0.165
19,CGTCCAAC,-0.065
20,CTAGGCTC,-0.0923
21,ACCGCGTG,-0.1
22,CTGTGTCC,-0.0675
23,CTTTTCTC,-0.11
24,ACTCTAGC,-0.12
25,GAGCACGC,0.00268

row,Sequence,PBM E-score
1,AAAGTCGA,-0.0915
2,AACACGCT,-0.149
3,AATCATAC,0.263
4,ACCGTCTA,-0.103
5,CCTATTCG,0.204
6,CTCTGATA,-0.142
7,CGCGCAGC,-0.0842
8,ACTCGGTA,0.109
9,AAGATCAG,-0.0402
10,TAGCCCTA,-0.163
11,AGTGATTA,0.0783
12,AATCTGAC,-0.119
13,CCCTCCGA,-0.161
14,GGCTCTCA,-0.202
15,CATACTTA,-0.00914
16,CAAGTCTA,0.00161
17,TAGGGCGA,-0.129
18,TAATGAGA,-0.102
19,CCTGGTCC,-0.198
20,ATCCCCAA,-0.222
21,CGACTATC,0.0595
22,ATAGAAAT,0.0412
23,GAGCCTCA,-0.127
24,GGTTGCAC,-0.0809
25,GCCGGAAA,0.0179

row,Sequence,PBM E-score
1,TAGTCACA,-0.101
2,CTAAGGAG,-0.115
3,CCCGTATC,0.339
4,CCCCCGAA,-0.129
5,CATCCTAC,-0.0778
6,AGCCACTG,0.0789
7,GAATCTAA,0.111
8,AGCTGGCC,-0.126
9,GATAGGGC,-0.366
10,GCGATTTA,0.0803
11,AAAGGAAT,-0.0898
12,CACGGCGC,-0.188
13,GAATTAAC,0.154
14,CAGTAGAC,-0.126
15,GGTGGTTA,-0.0349
16,CTGGTTGC,-0.0566
17,AACACAGA,-0.00201
18,AAAATTGG,-0.0899
19,GGGCTCGA,-0.0448
20,CCGTTGTC,0.189
21,ACGGCTAT,-0.0248
22,GGTAAAAA,-0.0161
